# Assays:
# [1] = target: Recombinant human Gal3 (rhGal3) (TrueBinding, #QC200361) (human) (UniProt P17931); experiment: cell-based or functional assay
# [2] = target: human Gal3 protein (recombinant human Galectin-3) (human) (UniProt P17931); experiment: cell-based or functional assay
% inhibition of CD62L shedding [1] [%],% inhibition of IL-6 secretion [1] [%],% inhibition of TNFα secretion [1] [%],% inhibition of IL-6 secretion (neutrophils) [2] [%],% inhibition of TNFα secretion (neutrophils) [2] [%],Binder
69.7,5.8,-64.7,–,–,F847C.26F5 (antibody) heavy: QIQLVQSGPEVKKPGETVKISCKASGYIFTNYGMNWVKQAPGKGLKWMGWINTYTGEPTYTDDFKGRFAFSLETSASTAYLQINNLKNEDTATYFCAKFGNYVGAMDYWGQGTSVTVSSASTKGPSVFPLAPCSRSTSESTAALGCLVKDYFPEPVTVSWNSGALTSGVHTFPAVLQSSGLYSLSSVVTVPSSSLGTKTYTCNVDHKPSNTKVDKRV[human IgG4 Fc with S228P (EU numbers) not given here] light: EIKMNQSPSSLSASLGDTITITCHASQNINVWLSWYQQKPGNIPKLLIYKASNLHTGVPSRFSGSGSGTGFTLTISSLQPEDIATYYCQQGQSYPYTFGGGTKLELKRTVAAPSVFIFPPSDEQLKSGTASVVCLLNNFYPREAKVQWKVDNALQSGNSQESVTEQDSKDSTYSLSSTLTLSKADYEKHKVYACEVTHQGLSSPVTKSFNRGEC
82.2,-17.7,22.6,-17.7,22.6,F847C.10B9 (antibody) heavy: QIQLVQSGPEVKKPGETVKISCKASGYIFTNYGMNWVKQAPGKGLKWMGWINTYTGEPTYTDDFKGRFAFSLETSASTAYLQINNLKNEDTATYFCAKFGNYVGAMDYWGQGTSVTVSSASTKGPSVFPLAPCSRSTSESTAALGCLVKDYFPEPVTVSWNSGALTSGVHTFPAVLQSSGLYSLSSVVTVPSSSLGTKTYTCNVDHKPSNTKVDKRV[human IgG4 Fc with S228P (EU numbers) not given here] light: DIRMTQSPSSLSASLGDTITITCHASQNINVWLSWYQQKPGNIPKLLIYKASNLHTGVPSRFSGSGSGTGFTLTISSLQPEDIATYYCQQGQSYPYTFGGGTKLELKRTVAAPSVFIFPPSDEQLKSGTASVVCLLNNFYPREAKVQWKVDNALQSGNSQESVTEQDSKDSTYSLSSTLTLSKADYEKHKVYACEVTHQGLSSPVTKSFNRGEC

# Source: patent US20250243282A1
